The supplement of paper PMC3334620
Whole data set: some 33,000 sequences, median “E-score (-0.5 to 0.5)” near -0.016, cut for the highest 2% near 0.32. The list shows a part of the results.

What follows are sequences tested against T1, Stp1 (UniProt B3LFK1) (assay: PBM E-score (8-mer binding enrichment) (E-score (-0.5 to 0.5)); higher = stronger / more preferred TF binding; most listed sequences are background and not binding sites). Settings: protein concentration: 200 nM; construct: GST-full length.
T1 sequence: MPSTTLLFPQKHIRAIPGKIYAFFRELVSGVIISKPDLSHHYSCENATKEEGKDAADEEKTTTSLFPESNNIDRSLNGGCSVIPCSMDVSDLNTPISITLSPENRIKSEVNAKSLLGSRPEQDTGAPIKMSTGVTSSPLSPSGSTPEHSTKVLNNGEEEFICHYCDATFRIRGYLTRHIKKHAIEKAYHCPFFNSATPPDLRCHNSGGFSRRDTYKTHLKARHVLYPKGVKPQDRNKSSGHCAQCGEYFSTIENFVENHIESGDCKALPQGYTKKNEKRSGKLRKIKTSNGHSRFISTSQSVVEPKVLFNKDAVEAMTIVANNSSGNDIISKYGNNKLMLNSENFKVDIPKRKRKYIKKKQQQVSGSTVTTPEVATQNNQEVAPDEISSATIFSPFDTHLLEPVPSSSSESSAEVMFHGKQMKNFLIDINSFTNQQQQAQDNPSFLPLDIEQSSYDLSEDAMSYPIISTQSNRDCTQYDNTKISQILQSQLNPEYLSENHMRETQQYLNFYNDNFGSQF
Outline: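 PURExpress in vitro transcription/translation supplied GST-tagged yeast transcription factors, either full-length or DNA-binding domain. Applied at about 100-200 nM to universal all-10-mer Agilent arrays double-stranded by primer extension, the bound protein was detected with fluorescent anti-GST. E-scores, modified Wilcoxon-Mann-Whitney statistics, were given by the Universal PBM Analysis Suite to ungapped eight-base words pooled with their reverse complements after masliner normalisation.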

Sequence	PBM E-score
CTTTGGTA	-0.0625
CCCAAGCG	-0.0427
AACTTGTA	0.146
GCCCACCA	-0.144
GGAGTGTA	-0.113
ATTTACCC	0.0198
CCCAATAC	-0.00448
ACCATAAA	0.166
AAGAACCC	-0.185
GAGTGTCA	0.0462
AGAGTGCA	-0.121
TAGACGAA	0.0973
ACAGTGGA	-0.0694
CGAGCGTA	-0.0631
CATAGCTC	-0.194
CGATGATA	0.0137
CAGATTAC	0.0382
ACGATGTA	-0.029
CAGGGTCC	-0.201
GAGAATCC	0.0868
TAAGACTA	0.00596
GAATTTGA	-0.026
GAAGGGAA	-0.245
AACTCGAG	-0.0118
CTTAATAC	0.0358

Sequence	PBM E-score
ACCTCTCC	-0.245
CGTCTCAG	-0.0111
AAAGATCG	-0.0323
TAGCACAA	0.032
TGGCGAAA	0.088
CTTCAATA	-0.0196
GCGTCCAA	-0.00493
GTGATAAA	0.164
TACGCTCA	-0.0311
CAGGGAAG	-0.199
CGGAGAAC	-0.184
CGATGGCA	0.0536
CGCAATAG	0.135
ACCGACGG	-0.0181
CAATACCC	-0.152
TCCGAAGA	0.0567
CTGTGTTC	-0.062
AACGCATA	0.0564
CCCCCGCA	-0.169
AGTCACAG	-0.187
TTACGCAA	0.15
CAGAAAGG	0.0864
AACAGTGA	-0.115
GTACAGTA	0.013
AGGTCATG	-0.226

Sequence	PBM E-score
GTATCTGA	-0.0545
GATCTGTA	-0.138
CGGGTGGC	-0.124
CCGTGACA	0.0322
AGGCTTTG	-0.0165
CGTTGTCA	0.0498
AAACGTCT	0.0625
AAGTGGAT	-0.149
CTCCCGGC	-0.164
ATGCTCGG	-0.113
TTAGTCAA	-0.132
AGGTCAGA	-0.306
CGATCTGC	-0.0533
GCGAGGTA	0.0342
GTCGATGA	-0.243
GACTGGGC	-0.217
ATACGAGA	-0.0267
ACGTGGGG	-0.174
GAATACTC	-0.0372
CAACTGTC	-0.00959
ATACTTCC	-0.029
CCGAGGCC	-0.22
GCGAGTAC	0.0367
ATACTTGC	0.11
CCTCTAGA	-0.0919

Sequence	PBM E-score
AGCTTAAT	0.0412
CTCTGCTC	-0.178
CCTTGTCC	0.037
TACGTGGA	0.0688
AGTCAGCA	0.199
ACAGGGGA	-0.24
CGTTGAAG	-0.0287
CTAAGCCA	-0.308
ATAATAAC	0.217
ACTCCACG	0.0239
CTGAGTAA	-0.105
ATACCCTG	-0.096
AGATCAAA	0.0271
AGAATAAG	-0.0264
CCTGTAGA	-0.0803
GCCATCTA	0.00107
ACTGCTGA	-0.16
AACGCGCA	-0.0475
ACAAACCA	-0.00617
AAATGAAG	0.0898
CACCAGGG	-0.219
ACCAAGCT	-0.0176
CATGTTGG	-0.0174
GGCAATCA	0.109
ACGAGTAT	-0.097

Sequence	PBM E-score
AGTTGGAC	-0.0952
CTCCTTGA	-0.229
CCGTTAAC	-0.00154
GGGCCGCA	0.285
AGTCCCAG	-0.258
AAAAAATT	0.117
CCTGGTGC	0.0925
CCAGACGC	-0.15
CAACTAAC	0.172
ACGCGTGG	0.1
CCTATGGA	-0.119
GCGGAGGA	-0.175
AAACGGAA	0.272
ATTCGCCC	-0.0713
CAACCGGC	0.134
ATTAGCTA	-0.0565
ATAGCGCC	0.357
CAAGCAGA	0.177
ATGTGTAC	-0.00236
AGCACTAC	-0.177
ATGAGCTG	-0.175
AAGTGCCT	0.202
ACCCTGCG	-0.156
CCAGATAA	0.0105
GGCATTTA	0.229

Sequence	PBM E-score
AAGGTGGG	-0.288
AACCTAAC	-0.0483
TGCCCAAA	-0.0909
GAGTTTAC	-0.0322
ACTCCAGT	-0.116
CTACTGTC	-0.157
ACCAAACG	-0.0326
ACTAACAT	0.0936
GCCCCTTA	-0.112
ACTCTTCG	-0.18
GCCCTAAA	-0.0669
GCTAACTA	0.169
AGTACGAG	-0.0489
CGACTTAG	0.0156
AACGGCGT	0.448
CAGCCGCC	0.0812
ACTAGAGC	0.0392
ACATAGGA	-0.199
GCTCTCGA	-0.144
GAGTTCGA	0.0785
AATCGGGG	-0.148
CGCGGGGC	0.296
GCTAGCAA	-0.127
AGAAGAAA	0.0201
AATATAGC	0.0676

Sequence	PBM E-score
TACTAGTA	0.158
AATTATCG	0.163
TGCGCACA	-0.00981
ATATTACC	0.178
GAGGTCCC	-0.185
GACCTACC	-0.168
ATTTGAAG	0.00357
CGATTACG	-0.0549
CGTATTCA	0.215
ATATCGAC	0.155
AGGTTGAT	-0.324
ATACCAGC	-0.18
GAGACCAC	-0.139
CGATCGGA	-0.0912
AGTTTGTA	0.0645
CCGACTCA	-0.195
CAAGAGTA	-0.0583
AAAGCGGG	-0.19
AATCGAAA	0.0672
CTCATGTA	0.0704
GCAACGAC	0.0446
CCATTTCA	-0.133
AGCAGATG	-0.255
CGTGACAC	0.0961
TATAGAGA	0.0248

Sequence	PBM E-score
CGCGACTC	-0.169
CCGGGTAC	-0.00701
CTCACCCA	-0.141
GTGGGAAA	0.0444
CAACGACC	-0.0528
CCGATTCA	0.0966
AGGACCCC	-0.286
CGGGCCCA	-0.0553
CCGCAAAA	0.178
ATTAGACC	-0.194
GCTGCAAA	0.0984
TTATGAAA	0.178
AGCTCGTC	-0.0849
CGGCCTCA	0.2
ACAACTTC	0.091
ACACTTTG	-0.0996
GAATTAGA	-0.00696
ACACCTCT	-0.0926
CTCCCATC	-0.0271
AACAACTT	0.0056
GCCACGGA	0.163
CAGAGACA	-0.273
GACTATCC	-0.178
ATTAGTAG	0.0992
AGACCCGA	-0.0722

Sequence	PBM E-score
CCGCGTCA	0.214
AACCCTCT	-0.36
AGCCTAGC	-0.197
ATTTGCGG	0.123
CCGATGCC	0.264
TAGCGAGA	-0.0854
AATCGAAG	0.199
ATGGCTGA	-0.0787
CGCCGGAC	0.0983
CACTCCGG	-0.0179
CAATCCTG	-0.0105
AACCCGAA	-0.145
ACCTCTTG	-0.174
TAGCACGA	0.1
CTACACTC	-0.0992
TGCTACCA	0.0189
CGGGAAAC	0.0127
ATACCCCC	-0.283
GGCGGAAA	0.0632
